Results as given in publication PMC4336329 (PLoS ONE, 2015).
Among all 310,000 compounds or so, about 2,200 (0.71%) showed an effect of 50% or more. Effects have a minus sign here. The list shows a part of the results.

biological target: human ether-à-go-go-related gene (hERG) potassium channel (human, UniProt Q12809); test: primary screen, population patch clamp on CHO cells stably expressing hERG
Sequence (Q12809 whole entry, looked up): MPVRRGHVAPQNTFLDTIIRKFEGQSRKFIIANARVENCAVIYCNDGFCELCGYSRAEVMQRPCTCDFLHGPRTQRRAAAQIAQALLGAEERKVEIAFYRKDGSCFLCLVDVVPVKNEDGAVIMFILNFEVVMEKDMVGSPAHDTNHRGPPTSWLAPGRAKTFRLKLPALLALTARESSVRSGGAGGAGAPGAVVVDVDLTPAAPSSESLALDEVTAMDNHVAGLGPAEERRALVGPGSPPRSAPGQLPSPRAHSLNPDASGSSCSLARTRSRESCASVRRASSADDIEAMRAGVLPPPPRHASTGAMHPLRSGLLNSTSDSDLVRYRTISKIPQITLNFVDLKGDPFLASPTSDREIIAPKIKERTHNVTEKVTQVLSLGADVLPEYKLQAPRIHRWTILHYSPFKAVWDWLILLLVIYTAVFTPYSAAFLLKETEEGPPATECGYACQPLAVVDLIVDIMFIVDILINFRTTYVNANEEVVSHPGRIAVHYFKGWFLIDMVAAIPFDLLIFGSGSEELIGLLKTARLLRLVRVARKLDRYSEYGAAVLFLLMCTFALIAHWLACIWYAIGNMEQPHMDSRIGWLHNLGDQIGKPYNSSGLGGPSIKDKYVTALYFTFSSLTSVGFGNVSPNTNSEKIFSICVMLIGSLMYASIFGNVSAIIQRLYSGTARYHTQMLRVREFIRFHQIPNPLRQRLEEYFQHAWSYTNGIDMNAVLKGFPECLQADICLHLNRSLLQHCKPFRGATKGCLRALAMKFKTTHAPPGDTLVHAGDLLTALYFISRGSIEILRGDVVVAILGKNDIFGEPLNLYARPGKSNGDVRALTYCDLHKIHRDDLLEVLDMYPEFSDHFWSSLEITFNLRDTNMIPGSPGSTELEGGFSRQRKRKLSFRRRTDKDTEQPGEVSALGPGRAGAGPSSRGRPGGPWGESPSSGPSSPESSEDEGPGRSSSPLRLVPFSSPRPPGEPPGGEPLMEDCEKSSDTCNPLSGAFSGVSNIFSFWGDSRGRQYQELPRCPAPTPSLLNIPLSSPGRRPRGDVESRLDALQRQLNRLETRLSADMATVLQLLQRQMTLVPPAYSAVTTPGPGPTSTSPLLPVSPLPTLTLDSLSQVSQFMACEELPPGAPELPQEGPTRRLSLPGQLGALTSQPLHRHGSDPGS

SMILES | hERG current change (%, negative = inhibition) at 1uM [%]
O=C(NCc1ccncc1)C(=O)NCC1OCCN1S(=O)(=O)c1ccc(Cl)cc1 (stereo not drawn) | 10.2
O=C(O)c1ccccc1NS(=O)(=O)c1cccc2nsnc12 | 8.63
CCCOC(=O)c1ccc(NC(=O)/C=C/c2cccs2)cc1 | 7.88
Cc1ccc(-n2nc(C(=O)NCc3ccc(C)o3)c3c4ccccc4n(C)c3c2=O)cc1 | 2.41
CCC(CC)C(=O)N(CCc1ccc(OC)cc1)Cc1nc2ccccc2c(=O)[nH]1 | 0.442
COc1ccccc1NC(=O)c1cn(CCC#N)nc1-c1ccc(F)cc1 | 20.4
CC(=O)Cc1nsc(Nc2ccc(F)cc2)n1 | 8.2
COc1ccc(C)cc1N(CC(=O)Nc1cccc(N(C)S(C)(=O)=O)c1)S(C)(=O)=O | -5.24
O=C(CCN1C(=O)COc2ccccc21)NCCCN1CCN(c2ccc(F)cc2)CC1 | -43.1
COc1ccc(/C=N/NC(=O)C2C3CCCCC32C)cc1OC (stereo not drawn) | 13.4
Cc1ccc(C)c(S(=O)(=O)c2c(C)cc(C)nc2Cl)c1 | 8.25
Cc1ccc(C2CC(c3ccc(Cl)cc3)n3nc(N)nc3N2)cc1 (stereo not drawn) | 3.47
Cl.N=c1n(CCN2CCCC2)c2ccccc2n1CC(O)c1ccco1 (stereo not drawn) | -3.97
O=C(Nc1cccnc1)c1cc(-c2ccco2)on1 | 13.9
O=C1NC2(CCCCCCC2)C(=O)N1Cc1ccc(F)cc1 | 13.2
Cc1cc(C)nc(NC(=O)CSc2nccc(C)n2)n1 | 6.75
O=C1C(C=Nc2ccccc2)=C(O)c2ccccc21 | -1.47
COC(=O)c1ccc2c(=O)n(NC(C)=O)c(=S)[nH]c2c1 | 9.7
C/C(=N\NC(=O)c1nn(C)cc1Br)c1cccc(NC(=O)C2CCCC2)c1 | 3.53
O=C(C1CCCN(Cc2ccc(F)cc2)C1)N1CCCCC1.O=C(O)C(=O)O (stereo not drawn) | 9.49
C=CCc1ccc(OCCCOc2ccc(C)c(C)c2)c(OC)c1 | -4.54
Cc1nnsc1C(=O)NNS(=O)(=O)c1ccccc1 | 10.2
O=C(NCCc1c[nH]c2ccccc12)C(=O)Nc1ccccc1 | 6.9

SMILES | hERG current change (%, negative = inhibition) at 1uM [%]
O=C(CS(=O)(=O)Cc1ccccc1)Nc1ccc(S(=O)(=O)N2CCOCC2)cc1 | 13.2
Oc1[nH]c2c(Cl)cc(Cl)cc2c1N=NC(=S)NCC1CCCO1 (stereo not drawn) | 10.8
COc1cc(NC(=S)N2CCN(c3ccccn3)CC2)c(OC)cc1Cl | 7.07
CCN(CC)CCN(C(=O)Cn1nnc(-c2ccc(OC)c(OC)c2)n1)C(C(=O)NC1CCCC1)c1ccc(F)cc1 (stereo not drawn) | -11.7
Cc1ccc(-c2noc(CCC(=O)NCc3ccccc3CN3CCOCC3)n2)cc1 | 6.61
CC1COC(c2cccn2Cc2ccccc2Cl)=N1 (stereo not drawn) | 5.84
COc1ccc(NC(C)=O)cc1NC(C)C(=O)Nc1cccc2ccccc12 (stereo not drawn) | 8.54
CSc1nc(Oc2ccc(=O)n(C)n2)nc(N(C)C)n1 | 11.7
O=C(NNC(=O)C1CCC(C(=O)NNC(=O)c2cccs2)CC1)c1cccs1 (stereo not drawn) | 7.27
COc1ccccc1-c1cc(C(=O)N/N=C\c2cnn(C)c2C)c2ccccc2n1 | 6.35
CSCCC(NC(=O)COc1ccccc1)C(=O)N(C)Cc1ccc(Cl)cc1Cl (stereo not drawn) | -3.56
COc1ccc(CCNC(=O)Cn2cnc3c(cnn3-c3ccccc3Cl)c2=O)cc1OC | 4.16
Brc1ccc(OCc2nnnn2-c2ccccc2)cc1 | 18.9
COc1cc(C)ccc1OCc1cc(C(=O)NCCN2CCOCC2)no1 | 12
Cc1c(C(=O)N2CCCc3ccccc32)sc2nc(-c3ccccc3)cn12 | 6.54
CCOC(=O)Oc1ccc2oc(C)c(C(=O)OCCOC)c2c1 | 5.12
O=C1CS/C(=N/N=C2CCCC2)N1 | 15.8
Cc1ccc(N2CN(CCC3=CCCCC3)CNC2=S)cc1 | 15.4
O=C(NCCCNC1CCCCC1)c1ccc(/C=N/O)nc1 | 3.46
O=C(c1ccccc1)N1N=C(c2ccccc2)CC1c1ccc2nccnc2c1 (stereo not drawn) | 15.4
C=CCNC(=S)NCCCCC1NC(=S)N(CC=C)C1=O (stereo not drawn) | 13
CC(C)(Oc1ccc(Cl)cc1)C(=O)N1CCN(c2ccccn2)CC1 | -1.81
O=C(COc1ccccc1)Nc1ccc(C(=O)N2CCCC2)cc1 | 13.6

SMILES | hERG current change (%, negative = inhibition) at 1uM [%]
CCOC(=O)C(=N/O)/C(C)=N/NC(=O)C(=O)Nc1ccc(Cl)cc1 | 8.64
COc1ccc(OC)c(CNC(=O)CCn2c(=O)c3cccn3c3ccc(F)cc32)c1 | -39.5
COc1ccccc1-c1nnc(-c2ccc(N3CCOCC3)cc2)o1 | 11.3
O=C(NCCCN1CCOCC1)c1ccccc1NS(=O)(=O)c1cc([N+](=O)[O-])ccc1Cl | 4.47
Cc1ccccc1C(=O)NC1CCN(C(=O)Nc2ccccc2Cl)CC1 | 23.7
Cc1nc2c(C)cccn2c1/C(O)=C1\C(=O)C(=O)N(CCN2CCOCC2)C1c1ccncc1 (stereo not drawn) | 9.88
O=C(COn1nnc2ccc(Cl)cc21)NCc1ccccc1 | 0.51
Cc1ccc(C(=O)NCC(=O)Nc2ccncc2)s1 | 5.61
O=C(NCc1cccnc1)Nc1ccc([N+](=O)[O-])cc1 | 12
Cc1ccccc1CN1[C@@H]2c3ccccc3C[C@@H]2OCCS1(=O)=O | 5.21
CC12CN3CC(c4ccccc4)(CN(C1)C31CCCCC1)C2=O | 9.96
CC1CC(=O)N(Cc2ccccc2)c2ccccc2N1C=O (stereo not drawn) | 5.48
CN1CCc2c([nH]c3ccccc23)C1 | 16.6
Cc1cccc(C(=O)OCC(=O)NN2C(=O)NC3(CCCCC3)C2=O)c1 | 22.3
Cc1ccc(NCc2nnc(SCC(=O)Nc3ncc(C)s3)n2CC2CCCO2)c(C)c1 (stereo not drawn) | 10
CCNc1nc(NCC)nc(ON=C(C)C)n1 | 15.6
Cc1ccc(CNCc2cccnc2)cc1 | 11.4
CCNC(=O)/C(C#N)=C/c1c(N2CCCCCC2)nc2c(C)cccn2c1=O | 5.28
Cc1noc(C(=O)N2CCN(Cc3ccc4c(c3)OCO4)CC2)c1Cl | 6.19
COc1ccc(CN(Cc2ccccn2)S(=O)(=O)c2ccc(-n3cnnn3)cc2)cc1 | -38.8
COCc1cc(=O)[nH]c(N2CCN(C(=O)c3ccco3)CC2)n1 | 12.7
CCN(C(=O)Cn1cnc2cc([N+](=O)[O-])ccc2c1=O)C1CCS(=O)(=O)C1 (stereo not drawn) | 6.06
CCc1cc2c(NCC3CCCO3)ncnc2s1 (stereo not drawn) | 3.89

SMILES | hERG current change (%, negative = inhibition) at 1uM [%]
Cc1cc(C)n(C(=O)c2cc3sccc3[nH]2)n1 | 14.5
C#Cc1ccc([C@H]2C=C(C(=O)N3CCN(Cc4ccccc4)CC3)O[C@@H](OCc3ccc(CO)cc3)C2)cc1 | 2.34
O=C1NC[C@@H](Cc2cccc3ccccc23)N(CCc2cc(C(F)(F)F)cc(C(F)(F)F)c2)C1=O | 16
CCOc1ccc(NC(=O)C[n+]2ccccc2)cc1.[Cl-] | 15.1
CCOC(=O)c1c(C)nc2ccc(C)cn12 | 7.97
CC(=O)c1ccc(OCCCC(=O)Nc2cccc(S(=O)(=O)N3CCCCC3)c2)cc1 | -3.68
O=C1NCCN(C(=O)CCc2nnc(-c3ccsc3)o2)C1c1ccc(F)cc1 (stereo not drawn) | -9.88
COc1nc(N)nc2nc[nH]c12 | 6.99
Cc1cc(C(=O)Nc2ccccc2Cc2ccccc2)no1 | 0.147
CCCC(C(=O)OCCN(CC)CC)(c1ccccc1)c1ccccc1.Cl | 2.9
COc1ccc(-c2c(C3=CCCCC3)oc3ccc(-c4ccc5c(c4)OCO5)cc23)cn1 | 16.2
COc1ccc(F)cc1S(=O)(=O)N1CCN(Cc2ccc3c(c2)OCO3)CC1 | 6.52
COc1ccc(S(=O)(=O)NNC(=O)C2CC(c3cccnc3)=NO2)cc1 (stereo not drawn) | 18.3
Cc1cc(C(=O)COC(=O)CN(C)S(=O)(=O)c2ccc(Cl)cc2)c(C)n1CC1CCCO1 (stereo not drawn) | 6.03
Cn1c2ccccc2c2cc(C(=O)OCC(=O)N3CC(=O)Nc4ccccc43)sc21 | 12
COc1ccc(Oc2cc(NN3CCCCC3)c([N+](=O)[O-])cc2[N+](=O)[O-])cc1OC | 3.74
COc1ccc(-c2cnn(C3CCS(=O)(=O)C3)c2N)cc1 (stereo not drawn) | 15.8
CC(C)Oc1snc(Cl)c1C(N)=O | 14.9
COc1ccccc1CC(NC(C)=O)C(=O)NC1CCN(C(=O)Nc2ccccc2F)CC1 (stereo not drawn) | 24.1
NC(=O)c1ccc(-n2nnnc2SCc2ccccc2)cc1 | 15.6
N/C(Cc1ccc([N+](=O)[O-])cc1)=N\OC(=O)COc1ccccc1Cl | 7.96
